Test results: PubChem BioAssay AID488969 (Vanderbilt High Throughput Screening Facility, 2010)
The full ranking holds about 110,000 compounds; the median of “z-score” is about -0.1, and the highest 2% start at about 2. Some of the results follow. Activity calls are given as the source filed them.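 Rule for the calls: active = z-score in the third read window above 3 or below -3; inactive = the rest.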

molecular target: Metabotropic glutamate receptor 8 (Rattus norvegicus) (UniProt P70579); experiment: rat mGluR8 modulators via GIRK flux, primary screen, cell-based, thallium flux, HTS (AID 488969); conditions: HEK293 rat mGluR8, GIRK (G protein-gated inwardly rectifying potassium channel) thallium flux, FluoZin2; at 10 µM; stronger effect = higher value; submaximal glutamate (EC20) added with thallium
UniProt P70579, sequence (P70579 whole entry, looked up): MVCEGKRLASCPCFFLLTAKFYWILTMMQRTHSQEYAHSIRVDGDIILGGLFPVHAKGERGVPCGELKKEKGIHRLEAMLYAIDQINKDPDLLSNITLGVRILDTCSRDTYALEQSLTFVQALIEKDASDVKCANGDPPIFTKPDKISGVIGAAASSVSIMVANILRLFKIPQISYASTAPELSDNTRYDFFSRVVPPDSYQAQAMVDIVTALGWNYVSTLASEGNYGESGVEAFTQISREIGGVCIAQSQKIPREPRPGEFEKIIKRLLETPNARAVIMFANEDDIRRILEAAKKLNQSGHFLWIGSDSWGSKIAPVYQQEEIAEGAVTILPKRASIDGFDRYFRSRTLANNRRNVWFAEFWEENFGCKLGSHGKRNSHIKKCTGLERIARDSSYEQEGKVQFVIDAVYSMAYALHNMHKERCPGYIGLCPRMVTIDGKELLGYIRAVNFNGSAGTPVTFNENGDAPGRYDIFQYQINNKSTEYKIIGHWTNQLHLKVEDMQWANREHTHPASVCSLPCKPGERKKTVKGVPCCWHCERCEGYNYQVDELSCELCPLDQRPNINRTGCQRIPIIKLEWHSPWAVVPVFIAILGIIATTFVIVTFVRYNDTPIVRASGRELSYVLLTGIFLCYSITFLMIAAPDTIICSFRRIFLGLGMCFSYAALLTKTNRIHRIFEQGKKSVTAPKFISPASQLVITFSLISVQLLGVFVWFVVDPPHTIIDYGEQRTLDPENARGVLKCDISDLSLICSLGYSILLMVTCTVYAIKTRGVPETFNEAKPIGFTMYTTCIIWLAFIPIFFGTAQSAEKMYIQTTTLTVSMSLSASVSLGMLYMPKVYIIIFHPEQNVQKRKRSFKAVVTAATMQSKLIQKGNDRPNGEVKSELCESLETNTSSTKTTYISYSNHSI

Row | SMILES | z-score
1 | N#CC1=C(N)NC(SCC(=O)Nc2ccc(Br)cc2)=C(C#N)C12CCCCC2 | -0.331
2 | COCCNC(=O)C(c1cccs1)N(CCc1ccccc1)C(=O)Cn1nnc2ccccc21 (stereo unspecified) | 0.113
3 | O=C(CCCCn1c(=O)[nH]c2ccsc2c1=O)NCc1ccc2c(c1)OCO2 | -0.295
4 | O=C1N2c3ccccc3CCc3cccc(c32)C1(O)C(F)(F)F (stereo unspecified) | 1.23
5 | CC(C)(C)NS(=O)(=O)c1ccc(NC(=O)c2cc(-c3ccccc3)nc3ccccc23)cc1 | -0.226
6 | CCn1c(SCc2nc(-c3cccs3)no2)nnc1-c1c[nH]c2ccccc12 | 0.136
7 | OCCN1CCN(c2ncnc3ccc(Br)cc23)CC1 | -0.924
8 | O=C(O)c1ccccc1COc1ccccc1Cl | -0.12
9 | O=C(NCCN1CCOCC1)C(=O)NCC1CCCO1 (stereo unspecified) | -0.182
10 | O=C(CSc1nc2ccccc2[nH]1)N/N=C/C=C\c1ccccc1[N+](=O)[O-] | -0.249
11 | COc1ccc(S(=O)(=O)N2CCC(O)(c3ccc4c(c3)OCO4)CC2)cc1 | 0.413
12 | CCc1ccc(NC(=O)CSCCN2C(=O)c3ccccc3C2=O)cc1 | -0.305
13 | COc1ccc(OC)c(/C=C2\S/C(=N/NC(=O)c3ccc4ccccc4c3)NC2=O)c1 | -1.95
14 | CC(C)OCCCn1c(=S)[nH]c2cc3c(cc2c1=O)OCO3 | active: 6.19
15 | Cc1cc(N(C)C)c(C#N)c(N2CCCCC2)n1 | -0.733
16 | CC(C)OC(=O)CSc1nnc(CNc2cccc(Cl)c2)n1C | -0.138
17 | O=C(Nc1ccccc1OC(F)F)c1ccccc1 | 0.14
18 | CCOc1ccc2nc(Nc3nc(CSc4nnnn4-c4ccccc4)cc(=O)[nH]3)nc(C)c2c1 | -0.445
19 | Cn1c(CSc2nc3ccccc3s2)nnc1SCC(=O)NCc1cccnc1 | -0.259
20 | CCc1cc(Br)ccc1N1C(=O)C2CC=CCC2C1=O (stereo unspecified) | -0.175
21 | CCCCCNC(=O)C(C)Sc1ccc(Cl)cc1 (stereo unspecified) | -0.75
22 | O=C(O)c1cc(N2C(=O)C3CC=CCC3C2=O)ccc1NCc1cccnc1 (stereo unspecified) | 0.0694
23 | Cc1cc(C)cc(NC(=O)C2CCCN2C(=O)Oc2ccccc2)c1 (stereo unspecified) | 0.0407
24 | CCCCCC(=O)N/N=C/c1ccc(N(C)C)cc1 | -0.127

Row | SMILES | z-score
25 | CCOc1ccccc1NC(=O)C1CCCN(S(=O)(=O)c2cccc3cccnc23)C1 (stereo unspecified) | -0.252
26 | Cc1ccc2[nH]c(C)c(CC(=O)O)c2c1 | -0.101
27 | COc1cc(/C=C(\C#N)C(=O)NC2CCCCC2C)ccc1OS(=O)(=O)c1ccc(C)cc1 (stereo unspecified) | 0.0167
28 | CCOC(=O)c1csc(Nc2nc3ccc(F)cc3s2)n1 | -0.247
29 | COCCn1c(C)cc(C(=O)CSc2nc3ccccc3c(=O)n2Cc2ccco2)c1C | -0.0437
30 | Cc1nn(Cc2ccc(Cl)cc2)c(C)c1N | 0.168
31 | CC1(C)C2CC=C(/C=N/NC(=O)c3ccc(Cl)cc3)C1C2 (stereo unspecified) | 0.355
32 | CCOc1cc(/C=N/O)ccc1OS(=O)(=O)c1ccc(C)cc1 | -0.55
33 | C=CCn1c(SCc2cc(=O)n3cc(C)ccc3n2)nnc1-c1cccc(C)c1 | -0.416
34 | Cc1nc2sc(C)c(C)c2c(=O)o1 | -0.0278
35 | Cc1nc(NS(=O)(=O)c2ccc(Br)cc2)c2c3c(sc2n1)CCC3 | -0.442
36 | Cc1cc(C(F)(F)F)c2c(C)nn(CCc3nn[nH]n3)c2n1 | 0.0333
37 | COc1ccccc1OCc1ccc(C(=O)Nc2ccccc2F)cc1 | -0.156
38 | OC(COCc1ccco1)CN1CCN(C(c2ccccc2)c2ccccc2)CC1 (stereo unspecified) | -0.619
39 | Cc1c(NC(=O)C(=O)/C=C(\O)c2ccc(Br)cc2)c(=O)n(-c2ccccc2)n1C | -0.237
40 | CC(C)CC1CC(=O)OC1(C)C(=O)CSc1nc2ccccc2s1 (stereo unspecified) | -0.602
41 | CCOC(=O)c1[nH]c2ccc(OC)cc2c1NC(=S)N1CCN(c2ccc(F)cc2)CC1 | 0.623
42 | CC1(C)NC(=O)N(CCCOc2ccc3c(c2)CCC3)C1=O | 0.297
43 | Cc1nc(NC(=O)c2cccnc2)ccc1Br | -0.136
44 | CCOC(=O)Cc1nn(CCc2ccccn2)c(=O)c2ccccc12 | 0.0376
45 | CCCCc1nnc(NC(=O)CCSc2ccccc2)s1 | 0.0449
46 | O=C(N/N=C/c1cccs1)c1c[nH]c2ccccc12 | 1.01
47 | O=C(Cn1nnc2ccccc21)N/N=C/c1ccco1 | 0.356
48 | COc1ccc(NC(=O)CN2C(=O)C(C)SC(C)C2=O)c(OC)c1 (stereo unspecified) | -0.101

Row | SMILES | z-score
49 | CCc1cccc(C)c1NC(=O)C(c1ccccc1)N1CCC1=O (stereo unspecified) | -0.0775
50 | COc1ccc(C2C(C(=O)NCc3ccco3)CCC(=O)N2c2ccc(OC)cc2)cc1 (stereo unspecified) | -0.111
51 | COc1cccc(C2CC(c3ccc(C(C)C)cc3)n3nc(N)nc3N2)c1 (stereo unspecified) | 0.0624
52 | COc1ccc(NC(=O)N2CC(C)OC(C)C2)cc1OC (stereo unspecified) | -0.307
53 | Cc1ccc(C)c(NS(=O)(=O)c2ccc(OCC(=O)NCc3cccnc3)cc2)c1 | -0.622
54 | COc1ccc(/C=C/c2c([N+](=O)[O-])c(=O)n(C)c(=O)n2C)cc1O | 0.00753
55 | Cc1cc(=O)c2c(o1)CC(C)(C)CC2=O | 0.362
56 | COc1ccc2c(c1)SCC/C2=C\CN1C(=O)CCC1=O | 0.23
57 | CCOC(=O)/C(N=Nc1ccc(F)cc1)=C(/O)c1ccc([N+](=O)[O-])cc1 | -0.494
58 | CCOC(=O)/C(C#N)=C\c1ccco1 | -0.494
59 | Cc1nn(-c2nnc(C)c(=O)[nH]2)c(C)c1SCC(=O)Nc1ccc(F)cc1 | 0.576
60 | Cc1cc2cc(NC(=O)c3ccco3)ccc2[nH]1 | -0.00388
61 | Nc1nc(CSc2ccccn2)nc(Nc2ccccc2)n1 | -0.528
62 | COc1ccccc1NC(=O)Cc1noc(CSc2cc(C)c3ccccc3n2)n1 | -0.517
63 | COc1ccccc1/C=C/C1(C(=O)NC2CCCC2)CC(=O)N1c1ccc(F)cc1 (stereo unspecified) | 0.761
64 | NC(=O)c1ccc([N+](=O)[O-])cc1SCc1ccccc1 | -0.165
65 | N#CCCN1CCN(S(=O)(=O)c2ccc(S(=O)(=O)NC3CCCC3)cc2)CC1 | -0.096
66 | Cc1cccc(N2CC(C(=O)O)CC2=O)c1 (stereo unspecified) | -0.0773
67 | Cc1cccc(NC(c2ccc(C)s2)c2ccc3ccc(C)nc3c2O)n1 (stereo unspecified) | 0.129
68 | N#Cc1cc(-c2ccccc2)nc(Oc2ccc(Cl)cc2)n1 | 0.0418
69 | CCOC(CCn1c(SCc2ccc([N+](=O)[O-])cc2)nc2ccccc2c1=O)OCC | -0.144
70 | CCOC(=O)c1c(N)sc(C(=O)N2CCCC(C(N)=O)C2)c1C (stereo unspecified) | 0.334
71 | COC(=O)c1[nH]c2ccc(C)cc2c1NC(=O)CN1CCN(C(=O)c2ccccc2)CC1 | -0.752
